Measured values as given in US20240360179A1, “STAPLED PEPTIDES AND METHODS THEREOF” (FOG PHARMACEUTICALS, INC., priority 2021, published 2024).

Legend:
[1] = target: T1, full-length B-Catenin (Uniprot ID P35222) (Homo sapiens, UniProt P35222); test: biochemical; format: binding; conditions: beta-Catenin FP IC50 (nM), competition fluorescence polarization
T1 construct: 10 nM full-length B-Catenin (Uniprot ID P35222)
T1 sequence (P35222 1-781): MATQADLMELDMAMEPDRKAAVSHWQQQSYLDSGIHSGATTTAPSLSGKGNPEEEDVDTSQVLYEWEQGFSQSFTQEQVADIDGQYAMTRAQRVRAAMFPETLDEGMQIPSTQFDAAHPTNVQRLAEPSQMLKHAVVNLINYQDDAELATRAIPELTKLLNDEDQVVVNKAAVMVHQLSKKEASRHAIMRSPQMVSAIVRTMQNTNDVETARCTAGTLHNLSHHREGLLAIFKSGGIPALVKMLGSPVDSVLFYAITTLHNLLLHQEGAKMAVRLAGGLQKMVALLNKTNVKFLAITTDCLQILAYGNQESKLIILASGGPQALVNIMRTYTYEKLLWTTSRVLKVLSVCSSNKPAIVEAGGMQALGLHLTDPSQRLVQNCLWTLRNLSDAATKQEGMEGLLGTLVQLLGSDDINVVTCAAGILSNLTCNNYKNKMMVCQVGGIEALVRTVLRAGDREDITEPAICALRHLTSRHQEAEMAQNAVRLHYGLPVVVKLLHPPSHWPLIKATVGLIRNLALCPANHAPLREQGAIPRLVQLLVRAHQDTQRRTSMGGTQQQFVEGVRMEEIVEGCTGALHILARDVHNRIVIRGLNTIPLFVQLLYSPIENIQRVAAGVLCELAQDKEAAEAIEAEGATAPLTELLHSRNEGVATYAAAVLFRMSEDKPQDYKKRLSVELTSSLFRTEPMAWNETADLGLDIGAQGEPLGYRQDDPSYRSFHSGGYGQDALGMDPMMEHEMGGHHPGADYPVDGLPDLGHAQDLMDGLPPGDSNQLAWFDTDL

[2] = target: T2, beta-catenin/TCF4 interaction (Homo sapiens, UniProt P35222); test: cell-based; conditions: NanoBRET Abs IC50 (uM)
T2 construct: host or cells: HEK293
T2 sequence (P35222 1-781): T1 sequence (P35222 1-781)

Row | SMILES | IC50 [1] [nM] | IC50 [2] [µM]
1 | CC(=O)N1CCC[C@@]1(C)C(=O)N[C@@H](CC(=O)O)C(=O)N[C@@H](CC(C)(C)C)C(=O)N[C@]1(C)CCCCCCCCOC(=O)N2CC[C@@]3(C2)NC(=O)[C@H](CCCCNC(=O)CC[C@@H](C(=O)N[C@@H](C)C(N)=O)NC(=O)[C@H](Cc2csc4ccccc24)NC(=O)[C@H](Cc2ccsc2)NC3=O)NC(=O)[C@H](Cc2ccccc2)NC(=O)[C@H](C)NC(=O)C(C)(C)NC(=O)[C@H](Cc2cccc(C(=O)O)c2)NC(=O)[C@H](CC(=O)O)NC1=O (relative stereo) [I-234, Ac-MePro-Asp-Npg-R5-Asp-3COOHF-Aib-Ala-Phe-Lys*3-PyrS2-3Thi-BztA-GlnR*3-Ala-NH2] | < 50 | > 10
2 | CCCC[C@H](NC(=O)[C@H](CC(=O)O)NC(=O)[C@]1(C)CCCN1C(C)=O)C(=O)N[C@]1(C)CCCCCCCCOC(=O)N2CC[C@@]3(C2)NC(=O)[C@H](CCCCNC(=O)CC[C@@H](C(=O)N[C@@H](C)C(N)=O)NC(=O)[C@H](Cc2csc4ccccc24)NC(=O)[C@H](Cc2ccsc2)NC3=O)NC(=O)[C@H](Cc2ccccc2)NC(=O)[C@H](C)NC(=O)C(C)(C)NC(=O)[C@H](CN(CC(=O)O)CC(F)(F)F)NC(=O)[C@H](CC(=O)O)NC1=O (relative stereo) [I-244, Ac-MePro-Asp-nLeu-R5-Asp-TfeGA-Aib-Ala-Phe-Lys*3-PyrS2-3Thi-BztA-GlnR*3-Ala-NH2] | 50 to 200 | > 10
3 | CC(=O)N1CCC[C@@]1(C)C(=O)N[C@@H](CC(=O)O)C(=O)N[C@@H](CC(C)(C)C)C(=O)N[C@]1(C)CCCCCCCCOC(=O)N2CC[C@@]3(C2)NC(=O)[C@H](CCCCNC(=O)CC[C@@H](C(=O)N[C@@H](C)C(N)=O)NC(=O)[C@H](Cc2csc4ccccc24)NC(=O)[C@H](Cc2ccsc2)NC3=O)NC(=O)[C@H](Cc2ccccc2)NC(=O)[C@H](C)NC(=O)[C@H](C)NC(=O)[C@H](Cc2cccc(C(=O)O)c2)NC(=O)[C@H](CC(=O)O)NC1=O (relative stereo) [I-236, Ac-MePro-Asp-Npg-R5-Asp-3COOHF-Ala-Ala-Phe-Lys*3-PyrS2-3Thi-BztA-GlnR*3-Ala-NH2] | < 50 | > 10
4 | CC(=O)N1CCC[C@@]1(C)C(=O)N[C@@H](CC(=O)O)C(=O)N[C@H](C(=O)N[C@]1(C)CCCCCCCCOC(=O)N2CC[C@@]3(C2)NC(=O)[C@H](CCCCNC(=O)CC[C@@H](C(=O)N[C@@H](C)C(N)=O)NC(=O)[C@H](Cc2csc4ccccc24)NC(=O)[C@H](Cc2ccsc2)NC3=O)NC(=O)[C@H](Cc2ccccc2)NC(=O)[C@H](C)NC(=O)C(C)(C)NC(=O)[C@H](CN(CC(=O)O)CC(F)(F)F)NC(=O)[C@H](CC(=O)O)NC1=O)C(C)C (relative stereo) [I-243, Ac-MePro-Asp-Val-R5-Asp-TfeGA-Aib-Ala-Phe-Lys*3-PyrS2-3Thi-BztA-GlnR*3-Ala-NH2] | 50 to 200 | > 10
5 | CCCC[C@H](NC(=O)[C@H](CC(=O)O)NC(=O)[C@]1(C)CCCN1C(C)=O)C(=O)N[C@]1(C)CCCCCCCCOC(=O)N2CC[C@@]3(C2)NC(=O)[C@H](CCCCNC(=O)CC[C@@H](C(=O)N[C@@H](C)C(N)=O)NC(=O)[C@H](Cc2csc4ccccc24)NC(=O)[C@H](Cc2ccsc2)NC3=O)NC(=O)[C@H](Cc2ccccc2)NC(=O)[C@H](C)NC(=O)C(C)(C)NC(=O)[C@H](Cc2cccc(C(=O)O)c2)NC(=O)[C@H](CC(=O)O)NC1=O (relative stereo) [I-238, Ac-MePro-Asp-nLeu-R5-Asp-3COOHF-Aib-Ala-Phe-Lys*3-PyrS2-3Thi-BztA-GlnR*3-Ala-NH2] | < 50 | > 10
6 | CC(=O)N1CCC[C@@]1(C)C(=O)N[C@@H](CC(=O)O)C(=O)N[C@@H](CC(C)(C)C)C(=O)N[C@]1(C)CCCCCCCCOC(=O)N2CC[C@@]3(C2)NC(=O)[C@H](CCCCNC(=O)CC[C@@H](C(=O)N[C@@H](C)C(N)=O)NC(=O)[C@H](Cc2csc4ccccc24)NC(=O)[C@H](Cc2ccsc2)NC3=O)NC(=O)[C@H](Cc2ccccc2)NC(=O)[C@H](C)NC(=O)C(C)(C)NC(=O)[C@H](CN(CC(=O)O)CC(F)(F)F)NC(=O)[C@H](CC(=O)O)NC1=O (relative stereo) [I-240, Ac-MePro-Asp-Npg-R5-Asp-TfeGA-Aib-Ala-Phe-Lys*3-PyrS2-3Thi-BztA-GlnR*3-Ala-NH2] | 50 to 200 | > 10
7 | CC(=O)N1CCC[C@@]1(C)C(=O)N[C@@H](CC(=O)O)C(=O)N[C@@H](CC(C)(C)C)C(=O)N[C@]1(C)CCCCCCCCOC(=O)N2CC[C@@]3(C2)NC(=O)[C@H](CCCCNC(=O)CC[C@@H](C(=O)N[C@@H](C)C(N)=O)NC(=O)[C@H](Cc2csc4ccccc24)NC(=O)[C@H](Cc2ccsc2)NC3=O)NC(=O)[C@H](Cc2ccccc2)NC(=O)[C@H](C)NC(=O)[C@H](C)NC(=O)[C@H](CN(CC(=O)O)CC(F)(F)F)NC(=O)[C@H](CC(=O)O)NC1=O (relative stereo) [I-242, Ac-MePro-Asp-Npg-R5-Asp-TfeGA-Ala-Ala-Phe-Lys*3-PyrS2-3Thi-BztA-GlnR*3-Ala-NH2] | 200 to 750 | > 10
8 | CC(=O)N1CCC[C@@]1(C)C(=O)N[C@@H](CC(=O)O)C(=O)N[C@H](C(=O)N[C@]1(C)CCCCCCCCOC(=O)N2CC[C@@]3(C2)NC(=O)[C@H](CCCCNC(=O)CC[C@@H](C(=O)N[C@@H](C)C(N)=O)NC(=O)[C@H](Cc2csc4ccccc24)NC(=O)[C@H](Cc2ccsc2)NC3=O)NC(=O)[C@H](Cc2ccccc2)NC(=O)[C@H](C)NC(=O)C(C)(C)NC(=O)[C@H](Cc2cccc(C(=O)O)c2)NC(=O)[C@H](CC(=O)O)NC1=O)C(C)C (relative stereo) [I-237, Ac-MePro-Asp-Val-R5-Asp-3COOHF-Aib-Ala-Phe-Lys*3-PyrS2-3Thi-BztA-GlnR*3-Ala-NH2] | < 50 | > 10
